Experimental findings from patent publication US20220153864A1 are described below.

In assay [1] the target is 32 different targets including GPC3, GPC5, and other TNF receptor proteins. Nature of the assay: off-target ELISA on 32 coated targets, binder at 10 nM, signals normalized to control antibody SEQ ID NOs: 106 and 107 and summed.
Assay [2] has the same target. The experiment in a line: off-target ELISA on 32 coated targets, sum of the ratios at 100 nM and 10 nM.
The target is the same in assay [3]. The experiment in a line: off-target ELISA on 32 coated targets, binder at 100 nM, signals normalized to control antibody SEQ ID NOs: 106 and 107 and summed.

B1: previously known CD137/GPC3 bispecific fusion protein (SEQ ID NO: 83) (protein)
chain: QDSTSDLIPAPPLSKVPLQQNFQDNQFQGKWYVVGRAGNVGLREDKDPPKMWATIYELKEDKSYDVTNVRFARKKCTYSIGTFVPGSQPGEFTLGQIKSEPGGTANLVRVVSTNYNQHAMVFFKEVYQNREIFFIILYGRTKELTSELKENFIRFSKSLGLPENHIVFPVPIDQCIDGGGGGSGGGGSGGGGS[omitted - human IgG4 Fc with S228P F234A L235A (EU numbers)]GGGGSGGGGSGGGGSQDSTSDLIPAPPLSKVPLQQNFQDNQFHGKWYVVGQAGNIRLREDKDPIKMMATIYELKEDKSYDVTMVKFDDKKCMYDIWTFVPGSQPGEFTLGKIKSFPGHTSSLVRVVSTNYNQHAMVFFKFVFQNREEFYITLYGRTKELTSELKENFIRFSKSLGLPENHIVFPVPIDQCIDG
For the molecule B1, the cumulative binding ratio in assay [1] is 144; in assay [3], 207. The sum of cumulative binding ratios in assay [2] was 352.

B2: CD137 specific lipocalin mutein (Fc fusion) (SEQ ID NO: 98) (Fc fusion)
chain: [omitted - human IgG4 Fc with S228P F234A L235A (EU numbers)]GGGGSGGGGSGGGGSQDSTSDLIPAPPLSKVPLQQNFQDNQFHGKWYVVGQAGNIRLREDKDPIKMMATIYELKEDKSYDVTMVKFDDKKCMYDIWTFVPGSQPGEFTLGKIKSFPGHTSSLVRVVSTNYNQHAMVFFKFVFQNREEFYITLYGRTKELTSELKENFIRFSKSLGLPENHIVFPVPIDQCIDG
In the case of B2, the cumulative binding ratio was determined as 32 in assay [1] and 38 in assay [3]. In assay [2], the sum of cumulative binding ratios is 70.
